# Experimental data taken from the supplement of paper PMC11383711.
# This is one part of the list. Binding of human antibodies (heavy:light variable regions, tested as scFv in one mRNA-display pool) to influenza hemagglutinin, with or without the stem antibody CR9114 bound first. Score = (mean enrichment − median) / interquartile range of that screen; higher = more enriched, 0 = typical non-binder. Active = above the paper's cut-off per screen: stems 28; unblocked H1 Solomon Islands 5, H1 Michigan 3, H3 5, H5 19, H7 2.85, both B 5; blocked 9, 7, H5 10, H7 10, B Phuket 10, B Lee 11.5. Scores are scaled within each screen and are no affinities; replicates correlate at about 0.6 to 0.9, and antibodies rare in the pool are noisier.
# B1: AG10-A05 (protein)
# chain 1: VQLQESGPRLIKPSETLSLTCTVSGGSISSSPYFWGWIRQPPGKGLEWIGSSYYSGNTDYNPSLKSRVTISVDTSKNQFSLKLRSVTAADTAVYYCARRTHDYGDYYYWFDPWGQGTLVTVSS
# chain 2: DIQMTQSPSSLSASVGDRVTITCRTSRTIRNYLNWYQQKPGKAPNLLIYTASTLQSGVPSRFNGSGSGTDFTLTISSLQPEDFATYYCQQSYYFGPGTKVDIK
# B2: antibody 2E04 (protein)
# chain 1: QVQLQESGPRLVKPSETLSLTCAVSGYSISNYYWGWIRQPPGKGLEWIGSLNHRGNTFYSPSLKSRVTISVDTSKNHFSLKVNSVTAADTAVYYCARGNYYDVDLKLFYFDYWGQGTLVTVSS
# chain 2: DIQMTQSPSSLSASVGDRVTITCRASQNIKTYLNWYQQKPGKAPNLLIYGASSLESGVPSRFSGSGSGTEFTLTISSLQPEDFATYYCQQSYKMFTFGGGTKVEIK
# B3: 240-14-IgA-2F02 (protein)
# chain 1: EVQLLESGGGLVQPGGSLRLSCAASGFTFSTYAMSWVRQAPGKGLEWVSTISGSGGSTYDAESVKGRFTISRDNSKNTLYLQMNSLRAEDTAVYYCAKEGGDFWSGYYANWFDPWGQGTLVTVSS
# chain 2: QSALTQPRSVSGSPGQSVTISCTGTRSDVGGYNYVSWYQQHPGKAPKVIIYDVKKRPSGVPDRFSGSKSGNTASLTISGLQAEDEADYYCSAFAGSHTLFGGGTKVTVL
# B4: W85-3C08 (protein)
# chain 1: ASLVEFWGEGLVPAGGPLRLSCAASGFSVSSNSMSWVRQAPGRGLEWVSLIYTGGSTVYADSVRGRFTISRDNFKNTLLLQMNSLRTEDTAVYYCARAERDGDYEGNWGQGTLVTVSA
# chain 2: EIVLTQSPATLSLSPGERATLSCRASQSVSSYLAWYQQKPGQAPRLLIYGASNRATGIPARFSGSGSGTDFTLTISSLEPEDFALYYCQQRSNWITFGQGTRLEIK
# B5: W85-1A11 (protein)
# chain 1: EVQLLESGGGLVQPGGSLRLSCTASGFTFSNYAMTWVRQPPGKGLEWVSSISGSGGRTYYADSVKGRFTISRDNSKNTLYLQMNSLRAEDTAVFYCAAASPLLRWYCLDYWGQGTLVPVSS
# chain 2: NFMLTQPHSVSESPGKTVTISCTGSSGSITSNYVQWYQQRPGSAPTTVIYEDNQRPSGVPDRFSGSIDSSSNSASLTISGLKTEDEADYYCQSYDSRNYVVFGGGT
# B6: 014-10-3A02 (protein)
# chain 1: VQLVQSGAEVKKPGASVKVSCKASGYTFTGYYIQWVRQAPGQGLEWMGWINPNSGGTNYAQSFQGRVTMTRDTSVNTAYMELNRLKSDDTAIYYCARDDYPDYEVYWGQGTLVTVSS
# chain 2: EIVLTQSPATLSLSPGERATLSCRASQSVSSYLDWYQQKPGQAPRLLIYDASTRATGIPSKFSGGGSGTDFTLTISSLEPEDFAVYYCQQRGNWLWTFGQGTKVEIK
# B7: SFV019-4E01 (protein)
# chain 1: QVQLQESGPGLLKPSETLSLTCTVSGGSISKYYWTWIRQPPGKTLEWIGYVHYAFYIGATNYNPSLKSRVTISVDTAKNQVSLRLTSVTAADTAVYYCVRADGDSEGFGYHYGMDVWGRGTTVTVSS
# chain 2: DIQMTQSPSSLSASVGDRVTITCRASQGIGNDLAWYQQKLGTAPKRLIYDASSLQSGVPSRFSGSGSGTEFTLTISSLQPEDFATYYCLQHNDYPLTFGQGTKVEIK
# Legend:
# Assay in all cases: mRNA display binding score; higher = more enriched on the antigen
# [1] = biological target: Influenza A H1N1 A/Michigan/45/2015 hemagglutinin ectodomain
# Protocol: (§1)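 A pool of natively paired antibodies, displayed as scFv on mRNA, was selected once on antigen-coated beads and sequenced before and after; two replicates.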
# [2] = biological target: Influenza A H1N1 A/Solomon Islands/3/2006 hemagglutinin ectodomain
# Protocol: as §1
# [3] = biological target: Influenza A H3N2 A/Singapore/INFIMH-16-0019/2016 hemagglutinin ectodomain; details: antigen blocked with: nothing
# Protocol: as §1
# [4] = biological target: Influenza A H5N1 A/Qinghai/1A/2005 hemagglutinin ectodomain
# Protocol: as §1
# [5] = biological target: Influenza A H7N9 A/Shanghai/2/2013 hemagglutinin ectodomain
# Protocol: as §1
# [6] = biological target: Influenza B/Lee/1940 hemagglutinin ectodomain
# Protocol: as §1
# [7] = biological target: Influenza B/Phuket/3073/2013 hemagglutinin ectodomain
# Protocol: as §1
# [8] = antigen blocked with: 2 µM CR9114 IgG
Binder,"mRNA display binding score [1, 8]",mRNA display binding score ([1]; antigen blocked with: nothing),"mRNA display binding score [2, 8]",mRNA display binding score ([2]; antigen blocked with: nothing),mRNA display binding score [3],"mRNA display binding score [4, 8]",mRNA display binding score ([4]; antigen blocked with: nothing),"mRNA display binding score [5, 8]",mRNA display binding score ([5]; antigen blocked with: nothing),"mRNA display binding score [6, 8]",mRNA display binding score ([6]; antigen blocked with: nothing),"mRNA display binding score [7, 8]",mRNA display binding score ([7]; antigen blocked with: nothing)
B1,inactive: 0.344,inactive: 0.32,inactive: 0.282,inactive: 0.466,inactive: 0.171,inactive: 0.139,inactive: 0.368,inactive: -0.235,inactive: 0.291,inactive: -0.267,inactive: 0.0227,inactive: -0.308,inactive: -0.229
B2,active: 117,active: 6.54,inactive: 1.05,inactive: 0.268,inactive: 0.239,inactive: 0.596,inactive: 0.298,inactive: 0.0658,inactive: 0.374,inactive: -0.685,inactive: 0.215,inactive: 0.0158,inactive: -0.127
B3,inactive: -0.383,inactive: -0.726,inactive: -0.444,inactive: -0.546,active: 72.7,inactive: -0.827,inactive: -0.295,inactive: -0.572,inactive: -0.618,inactive: -0.767,inactive: -0.117,inactive: -0.456,inactive: -0.419
B4,inactive: 0.0552,inactive: 0.184,inactive: -0.138,inactive: -0.111,inactive: 0.402,inactive: -0.495,inactive: -0.258,inactive: 0.118,inactive: 0.587,inactive: 0.083,inactive: -0.202,inactive: 0.0136,inactive: -0.152
B5,inactive: 0.587,inactive: 0.701,inactive: 0.24,inactive: 0.563,inactive: 0.555,inactive: -0.29,inactive: 0.321,inactive: 0.0341,inactive: 1.7,inactive: 0.0202,inactive: -0.175,inactive: 0.0547,inactive: 0.0134
B6,active: 240,active: 10.5,inactive: 1.13,inactive: 0.128,inactive: 0.362,inactive: 0.51,inactive: 0.576,inactive: 0.98,inactive: 1.61,inactive: 0.176,inactive: 0,inactive: 0.965,inactive: 0.366
B7,inactive: 0.193,inactive: 0.793,inactive: -0.00925,inactive: 0.68,inactive: 0.8,inactive: 0.211,inactive: 0.323,inactive: -0.596,inactive: 0.712,inactive: -0.34,inactive: -0.0825,inactive: -0.341,inactive: -0.0868
